Read counts are not given, so values of variants with three or more changes are uncertain.
B1: LINE1-full (parent)
chain: UACGUAGGUGGUUUUCCCCUGAUAGUGCUAAGGGGGCCUGGAAGUUUGGACUGGGCAGAGCUCAACACAGCGUGGCAAAGUGGCUGUGGCUAGACUGCCUCUCUGGAUUCCUCGUCACUCAGCAGGGCAUCUCUGAGAGAAAUGCC

Variants of: B1
Test: self-cleavage, relative activity (ratio to wild type); higher = more cleavage; in vitro, sequencing; the parent is a self-cleaving ribozyme

Row | Variant | self-cleavage
1 | G21U A31U A59U U62C U109A U143A | 0.19
2 | U12C U15C A57G C95U U104A | 0.07
3 | U13C A30U A43G A67U U91C | 0
4 | U14C A24G A67G | 0
5 | A107G G126A A141G | 1.4
6 | C3U U62C G114A U130C | 0.05
7 | G4A U13C A79G A140G | 1.62
8 | U13C U112C A140G | 0.55
9 | U15C U62C U134C | 0.15
10 | U45C C71A U104C | 2.02
11 | A2U U12G C19U U108C | 0.48
12 | U15C U46A U81A U96C | 0.12
13 | A50G A67G U96C | 0
14 | U1G A65G U91C | 0
15 | G34U A57G U115C | 2.04
16 | G33C A69G A121U | 0.1
17 | U20C U39A U45C A59G | 0
18 | G7A A43G A57G | 0.59
19 | A6G U119C U132C | 0.94
20 | A77G U104C G137A | 2.02
21 | U15C G58U A121G | 0.06

Row | Variant | self-cleavage
22 | U23A A42G A136U | 0.84
23 | U9C U100C U143A | 1.84
24 | U13A A50G U81G | 0.63
25 | G54U U96C U112C A140U | 0.07
26 | A22G U62C C123U | 0.06
27 | U46C U130C A141G | 2.3
28 | G27A U104C A117U | 1.25
29 | U15C A107G A138G | 1.69
30 | A6G U12C U15A A57G U108A | 0.93
31 | G4U U87C C110U U115A | 0.37
32 | U12C A43G A78G U104A U115C | 1.31
33 | U12C U47C U108A | 1.11
34 | U45A A65G U73C | 0.19
35 | G34U G48U A67C U104C | 0.09
36 | U52C G53U A64G | 0.2
37 | G32A U47A A78U | 2.05
38 | G36U U62A A69G A92U U115A | 0.02
39 | G34U A77U U112A | 1.24
40 | U13C A30G G36A U87C U96C | 0
41 | U39C G80U A92G | 0.03
42 | U52A C84U U130C | 0.11

Row | Variant | self-cleavage
43 | U15A U29C A57G | 0
44 | A42G U52C A121U A129U U130C | 2.04
45 | U14G U29C A121U U132A | 1.72
46 | U13C C37A A94G U115C | 0
47 | A6G A124C U130C | 1.67
48 | A2G U46C U130C | 1.23
49 | A43G U47A A57C A124G A140U | 0.27
50 | U15G A77C C120U | 0.67
51 | G34U U46C A50G A65G U143C | 0.1
52 | U52C A78G A138U | 0.96
53 | A31G G53A A117C | 1.34
54 | A22G U47C A64C C101U | 0.55
55 | U45A C56U A140G | 0.05
56 | U13C A69G U115A | 0.7
57 | G4C G35A U39C G83A | 0.67
58 | G72A C123A U132C | 1.17
59 | A22G U46C U81A | 2.02
60 | U85C G127U A138G | 0.03
61 | U45C A64G A78G A121C | 0
62 | U20C A42G A57G | 2.78
63 | U9C A30G A65G A79G U87A | 0

Row | Variant | self-cleavage
64 | G36A A43U U46C | 1.4
65 | G49A G74A A78U U100A U104C | 1.12
66 | A6G U23A U46C A107G U109C | 0.66
67 | U5A U20C U85A U104C | 0.09
68 | U14C G34U U112A | 1.04
69 | U91A G105U A107G C146G | 0.58
70 | G33A A43G U62C A69G U104C | 0
71 | A24U A30G U45C | 0.38
72 | U29C C38U A77U | 0.98
73 | U47A U73C G97C U134A | 0.18
74 | A129U A141G A142G | 2.02
75 | U23C A65G G126U | 0.02
76 | A24U A107U U108C U134C | 2.45
77 | A31G U108C A129U | 1.15
78 | A31U A67U C98U U115A | 0.06
79 | A59G A65G U102C | 0
80 | G32A U47A C84U A117G A136G | 0.1
81 | A31U A77U A94G | 0.19
82 | A124G G125A G137A | 1.33
83 | U14C U62C G83A U130A | 0.03
